# Results from the supplement of paper PMC3334620.
# In all, about 33,000 sequences were measured (“E-score (-0.5 to 0.5)”: median about -0.043, highest 2% from about 0.37 on). The list shows a part of the results.
# Target: T1, Upc2 (UniProt Q12151)
# T1 sequence: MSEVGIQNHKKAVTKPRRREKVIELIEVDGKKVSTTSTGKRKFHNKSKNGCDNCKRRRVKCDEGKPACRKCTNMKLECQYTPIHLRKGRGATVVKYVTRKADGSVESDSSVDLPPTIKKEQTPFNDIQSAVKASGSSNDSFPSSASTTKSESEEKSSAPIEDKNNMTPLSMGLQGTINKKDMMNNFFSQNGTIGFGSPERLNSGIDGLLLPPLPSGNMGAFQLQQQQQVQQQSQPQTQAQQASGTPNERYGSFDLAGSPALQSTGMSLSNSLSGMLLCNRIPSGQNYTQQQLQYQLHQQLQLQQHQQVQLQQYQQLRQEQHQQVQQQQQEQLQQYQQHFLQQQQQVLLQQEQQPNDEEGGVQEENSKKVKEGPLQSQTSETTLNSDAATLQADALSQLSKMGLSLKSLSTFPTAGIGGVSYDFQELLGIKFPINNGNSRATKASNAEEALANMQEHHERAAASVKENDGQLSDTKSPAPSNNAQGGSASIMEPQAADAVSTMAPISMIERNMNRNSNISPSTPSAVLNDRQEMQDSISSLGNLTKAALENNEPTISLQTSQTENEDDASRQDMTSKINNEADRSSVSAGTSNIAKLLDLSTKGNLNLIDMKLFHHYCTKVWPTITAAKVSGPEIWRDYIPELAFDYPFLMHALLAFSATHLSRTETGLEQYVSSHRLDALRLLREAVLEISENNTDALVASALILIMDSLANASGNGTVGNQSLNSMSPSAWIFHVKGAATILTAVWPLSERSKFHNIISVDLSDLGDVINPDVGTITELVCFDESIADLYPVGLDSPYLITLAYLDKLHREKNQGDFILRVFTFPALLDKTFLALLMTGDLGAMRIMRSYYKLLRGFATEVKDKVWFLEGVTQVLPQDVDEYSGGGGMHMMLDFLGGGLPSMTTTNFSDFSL
# Test: PBM E-score (8-mer binding enrichment) (E-score (-0.5 to 0.5)); higher = stronger / more preferred TF binding; most listed sequences are background and not binding sites
# Details: protein concentration: 200 nM; construct: GST-full length
# Procedure, shortened: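 Universal all-10-mer Agilent arrays, fresh or stripped once, were converted to double-stranded form by primer extension. GST-tagged yeast transcription factors from PURExpress in vitro transcription/translation, full-length or DNA-binding domain only, were applied at about 100-200 nM and detected with fluorescent anti-GST. After masliner normalisation, the Universal PBM Analysis Suite scored each ungapped eight-base word together with its reverse complement by E-score.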
row,Sequence,PBM E-score
1,GCGATCGA,0.166
2,ATCAAACG,0.351
3,ACTTCGGC,-0.142
4,ATTGAAAA,0.0582
5,ATCCCGAT,-0.122
6,GCTAATTA,0.159
7,CAGATTCA,-0.241
8,ACCCTTCC,-0.211
9,GTGGTAAA,-0.0449
10,GATTCTGC,-0.114
11,AGGAAATC,0.12
12,ACGTTGCG,0.0848
13,CCACAAAA,-0.0162
14,CCCAACAC,-0.164
15,ACTATAAT,-0.0414
16,CACTATGA,-0.216
17,AGACTCTG,-0.0319
18,AAAAATGT,0.0651
19,GCCATAGC,-0.242
20,CCTGTAAC,0.0858
21,AAATCATC,-0.205
22,GTTAGTGA,0.0421
23,AGAATTGA,0.0868
24,ACGTGTGC,0.031
25,AAAGTCGG,0.0107

row,Sequence,PBM E-score
1,AATGATCC,-0.0669
2,AGAACAAG,0.0872
3,AAGTAGCT,-0.0689
4,GTTGTATA,0.0959
5,AAGAGGCA,0.107
6,CCAAGCAA,-0.138
7,CACGTGCC,-0.208
8,AGTTAGAG,-0.0903
9,CTGTTTCC,-0.202
10,AGCGGAAC,0.187
11,ATAGCGGA,-0.0512
12,GGACAATA,-0.17
13,CTAGCTTA,-0.129
14,AGAAAAAT,-0.0298
15,ACTCGAGG,-0.117
16,CCTTGCCG,-0.166
17,GACAGCGC,0.0234
18,TTATCCAA,0.0246
19,GACGGAAC,0.00085
20,AGCAGTGG,-0.145
21,AGGTCTGA,0.0577
22,CTGCGACC,-0.164
23,AACGCCGA,0.25
24,CCCTTGCA,-0.222
25,GGAGACGA,0.003

row,Sequence,PBM E-score
1,CATACGCG,0.313
2,GCCATGAA,-0.0794
3,ATGCGGCC,-0.128
4,GTCAGACA,-0.166
5,AATTGCTG,0.132
6,ATACCAAC,0.0132
7,ACACGGCT,-0.11
8,GATCGTTA,0.291
9,CCAGGCGA,-0.324
10,ATCAGCTG,0.00812
11,CTTCCGAA,0.0636
12,TCCTAAAA,0.048
13,CACCAGAA,-0.0514
14,AGGACACA,-0.0315
15,GATGACGA,0.0943
16,CGGCCACC,-0.0618
17,TAACCCCA,-0.212
18,GCATCGAC,-0.117
19,CCAATGAC,-0.259
20,AGGAATAC,-0.0233
21,TGGGGCAA,-0.225
22,CGGGTATC,0.135
23,GCGGTCGA,0.186
24,ATACACAG,-0.117
25,GGGTTATA,0.0157

row,Sequence,PBM E-score
1,CATAAAGC,-0.12
2,CGCCAGAA,0.13
3,CATTCCAA,-0.0414
4,TTAGGAAA,-0.175
5,CTAGAAGA,-0.129
6,AAGCTCCA,-0.175
7,ACCGGCCC,0.0253
8,GATCCGGA,-0.0662
9,ATAGCATC,-0.062
10,AATTTCGC,0.0265
11,ATACGGCG,0.43
12,ATATTTAG,-0.0819
13,CCGTACGA,0.443
14,CCGGCCGC,-0.28
15,CCCACGTA,0.0707
16,AGTCATGC,-0.00618
17,GAAAATCA,0.0813
18,CAGGACAA,0.111
19,ACAGTGTC,-0.0162
20,TGTCAAAA,-0.0976
21,AATTGTAT,-0.201
22,ATTTTGGA,-0.0729
23,CACTTCCC,-0.244
24,AAAAAAGG,-0.156
25,CTCTAGGA,-0.337

row,Sequence,PBM E-score
1,CTGAAATC,-0.116
2,CTTCACCA,-0.333
3,ACACTCAG,-0.142
4,AGGAAATA,0.103
5,AATTCTAT,-0.0257
6,CCTTTGCG,0.0792
7,ACTGAATC,-0.057
8,GAGTCGTA,0.43
9,GGCCCGTA,0.334
10,GTTGTGTA,0.227
11,AGCCCTGA,-0.126
12,AGGAATCA,-0.107
13,AGTACTGC,0.0497
14,ATGTGCTG,-0.0785
15,GTCTGTGA,-0.117
16,CCAATCAC,-0.0942
17,TCTAACAA,-0.19
18,TCCCGGCA,-0.112
19,CTTGTATA,-0.0603
20,CCACCCCC,-0.243
21,CAAGAAAG,-0.0965
22,AGGAACCA,-0.0762
23,AGGGTAAC,0.0675
24,CGATGAGA,0.0841
25,ATTAAATA,0.0191

row,Sequence,PBM E-score
1,ATACAGGC,-0.0717
2,CCTGCAAC,-0.074
3,ATTATCAG,-0.179
4,AGATGTAC,0.0534
5,ACCAAGGC,-0.129
6,CAAACCGG,-0.0596
7,CGCAAACG,0.412
8,CGGCGCTA,-0.119
9,GCAGATGA,-0.188
10,CCTATGTA,-0.0105
11,AGCAGGTA,-0.234
12,GTATAGAC,0.347
13,ACGAATCT,0.302
14,GCCACAAA,0.119
15,CAGACCGA,-0.016
16,CTTGATCA,-0.14
17,CGATTCAA,0.105
18,ATCCGGGA,-0.161
19,GCTCTGAA,-0.0127
20,ATAGTCAC,0.0288
21,AGTGTCCG,-0.00176
22,AGGATATC,-0.0779
23,AAGGTCCC,-0.101
24,ACGGTAAC,0.222
25,ACCAGGTC,-0.0565

row,Sequence,PBM E-score
1,AGACGAAC,0.29
2,CTCTACAC,-0.0552
3,ATCACACC,-0.0677
4,CATGTGGA,-0.222
5,GGGCTCAC,-0.161
6,ATGCACAG,-0.142
7,AAAACAGG,-0.221
8,CAGTCAAC,-0.0955
9,CAGTTTTC,0.0824
10,AGCCTGAG,-0.0748
11,AATGTCAA,-0.153
12,AGACAACC,-0.115
13,GGTCGGAA,0.0431
14,AGGACGTA,0.0024
15,ACAGGTTC,-0.0233
16,CGATACCG,-0.0096
17,AAGTAGGA,-0.0916
18,CCCATCGA,-0.0519
19,GTAAGTGA,0.161
20,CGATATGA,0.0557
21,ACTTGCTA,-0.177
22,CATTAAGA,-0.00609
23,ACATAAAG,-0.0136
24,AGCAGCCC,-0.161
25,GGGCTCTA,0.0012

row,Sequence,PBM E-score
1,TATGCAGA,0.0205
2,AATTACTA,0.0237
3,CATATTAC,-0.0835
4,AATTGCTA,-0.0387
5,CTCCTCCC,-0.18
6,ACCCCCGT,-0.0332
7,CCTTACGC,0.193
8,ATGAGTCG,0.0524
9,GACAGCTA,-0.126
10,ATTCTGGG,-0.218
11,CCCGCGGA,-0.25
12,AAACCAAG,-0.0232
13,CATACTCC,-0.182
14,AGTTGCTG,0.0425
15,AAGATACG,0.349
16,CGCATAAG,0.226
17,GCTGAAAC,0.0487
18,AATGCTGG,0.022
19,AGACTCGC,-0.0548
20,ACGGGGCA,0.0932
21,CGTGCTAC,-0.175
22,ACCTGGTC,-0.0694
23,CGTTGTTC,0.0493
24,CAAGTAAA,0.0181
25,CTGGTAGA,-0.121

row,Sequence,PBM E-score
1,CCACACGC,-0.059
2,GACCACGC,-0.0484
3,TCTCGCCA,0.024
4,ATCTGCCG,-0.0104
5,CGGGGTAA,-0.0185
6,CATTCGGA,0.153
7,CCATCCAA,-0.229
8,ACAATTTC,0.0419
9,GACCAGTA,-0.0242
10,CCAACTTC,0.0439
11,ACCCCCAG,-0.101
12,GTGAATTA,-0.165
13,GCTTCCGA,0.0593
14,CTCTGTAA,-0.0575
15,ATATGGTG,0.0542
16,CGTTGAAC,0.222
17,GGGTGGTA,0.0636
18,AGCGATAA,0.0894
19,ACAGGCCT,-0.206
